# Test results taken from the BET-seq Pho4 binding data (Le et al. 2018).
# The list shows a part of the results. The energies were worked out here from pooled read counts, against the library average; single values are noisy.
# Biological target: T1, Pho4 (S. cerevisiae) (UniProt P07270)
# T1 sequence: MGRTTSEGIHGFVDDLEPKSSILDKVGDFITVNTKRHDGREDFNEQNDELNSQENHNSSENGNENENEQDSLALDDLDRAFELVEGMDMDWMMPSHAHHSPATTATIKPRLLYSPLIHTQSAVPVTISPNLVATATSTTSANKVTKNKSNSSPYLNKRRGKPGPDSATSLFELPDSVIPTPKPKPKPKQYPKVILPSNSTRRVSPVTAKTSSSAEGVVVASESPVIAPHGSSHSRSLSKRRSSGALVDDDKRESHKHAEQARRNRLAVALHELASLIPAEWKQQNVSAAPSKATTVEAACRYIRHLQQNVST
# Assay: relative binding free energy (BET-seq); higher = weaker binding
# Conditions: reference: library average
row,Sequence,relative binding free energy [kcal/mol]
1,TTCGGCACGTGTGCAG,-0.08
2,TTAGGCACGTGCGGAG,-0.23
3,TACGTCACGTGTGCGT,0.09
4,ATGGCCACGTGGGGGG,-0.26
5,TGGGGCACGTGTATAG,-0.18
6,TCAGACACGTGTAGGG,0.09
7,GTGGTCACGTGATTGC,0.36
8,TGGATCACGTGAGTTC,0.32
9,GTACACACGTGTGGGT,0.06
10,TAGCGCACGTGGTAAG,-0.08
11,TGTGGCACGTGGCACA,-0.15
12,AGAAGCACGTGGGGAT,0
13,CGAGTCACGTGTGGGT,0.09
14,TAGAGCACGTGGCATT,-0.12
15,GGTAGCACGTGCGTTG,-0.05
16,CGGGACACGTGGGTTA,-0.08
17,AAAAGCACGTGGGGGA,-0.23
18,CGATACACGTGGGGTT,-0.12
19,ATTTCCACGTGTATTT,0.07
20,ATGATCACGTGAGGTC,0.51
21,TGGAACACGTGTTCTG,0
22,TCGTTCACGTGATGGC,0.41
23,CTGTGCACGTGATTGA,0.22

row,Sequence,relative binding free energy [kcal/mol]
1,GGTGCCACGTGGGAGT,-0.07
2,GGCAGCACGTGGGGTA,-0.18
3,TGGCTCACGTGGGGAA,0.19
4,GTCGACACGTGATGTT,0.24
5,GGTGCCACGTGATTTG,0.06
6,TGGCTCACGTGAGAGG,0.37
7,TAGTGCACGTGGATCT,0.07
8,AGCGACACGTGGTAGG,-0.1
9,CTTTTCACGTGGTTAA,0.17
10,TGATGCACGTGCGGAG,-0.07
11,ATAGTCACGTGCCTGG,0.09
12,ACTGTCACGTGTTAGT,0.02
13,TTTGGCACGTGCTGAA,-0.2
14,ATATACACGTGGGGAC,0.04
15,GATGGCACGTGAAGAG,0.25
16,TCCTGCACGTGGTTGG,0
17,AGGCTCACGTGATTGA,0.46
18,CGCGGCACGTGTGGCG,0.02
19,GTTTTCACGTGGACGT,0.18
20,TGTATCACGTGTGGAC,0.23
21,TGGTTCACGTGGTACA,0.13
22,ATATCCACGTGGGGGG,-0.16
23,AGTGACACGTGGGGTG,-0.12

row,Sequence,relative binding free energy [kcal/mol]
1,AGTATCACGTGAAGTT,0.23
2,ACATTCACGTGTAGGG,0.1
3,GTGTTCACGTGCGTTC,0.2
4,TTTCACACGTGGGTCT,-0.02
5,TCTGGCACGTGGGGTA,-0.29
6,TGAGTCACGTGATTTA,0.28
7,TCTTACACGTGTAGTT,0.12
8,GTTAGCACGTGAGATG,0.2
9,GTCGTCACGTGAGATA,0.4
10,GTTTTCACGTGGTGCG,0.26
11,GACGGCACGTGGATGT,0.02
12,GGGGACACGTGGGTGC,0
13,TATTACACGTGGAGAG,0.02
14,TATTGCACGTGAGGGA,0.15
15,ATGGTCACGTGAAATT,0.27
16,ACTATCACGTGGGTTT,0
17,TGTGCCACGTGGTCTG,-0.11
18,TAGTTCACGTGGCGGT,0.23
19,GCTTGCACGTGGGGTT,-0.15
20,AAAGTCACGTGTCGGT,0.11
21,ACGGGCACGTGCGTGT,-0.33
22,TGTTTCACGTGGGTAG,0.26
23,GTTGACACGTGGACTG,0

row,Sequence,relative binding free energy [kcal/mol]
1,TGGAGCACGTGCGTCT,-0.03
2,CCTTGCACGTGGGTGT,-0.09
3,CTGGGCACGTGGCGTG,-0.14
4,ATGGACACGTGTTGAT,0.1
5,GAGTTCACGTGGTCTA,0.35
6,ATATACACGTGATATT,0.12
7,AGGGGCACGTGGGACG,-0.23
8,TTTTTCACGTGGATCA,0.4
9,TTGTGCACGTGATGGG,0.12
10,GGTTACACGTGTGTGG,0.25
11,GGTAGCACGTGGTTCG,-0.16
12,ATAATCACGTGTAGTT,0.14
13,CGAGTCACGTGCAGGT,0.16
14,TGTAGCACGTGGTCTT,-0.11
15,TTAGTCACGTGGAACG,0.23
16,GTGGGCACGTGCTGTT,-0.05
17,TCTTGCACGTGGGCGG,-0.11
18,GGCAACACGTGTTTTG,0.01
19,AGTTGCACGTGGCTTA,-0.12
20,TAAGTCACGTGTGGGG,0.08
21,AGGCGCACGTGACGTG,0
22,AAGGACACGTGAGGTG,0.26
23,CATGGCACGTGGAGAG,-0.06

row,Sequence,relative binding free energy [kcal/mol]
1,TTGAACACGTGATTTT,0.21
2,TATCACACGTGTGTGA,0.16
3,TAGGTCACGTGACGGG,0.19
4,CAACGCACGTGTGGTG,-0.02
5,GGAGCCACGTGAGGGT,0.05
6,ATTCACACGTGGTTGT,-0.06
7,TTTAGCACGTGTTGTC,-0.28
8,GCTGACACGTGAGGTT,0.31
9,CTAGTCACGTGAAGTG,0.27
10,GTGCACACGTGGGGTG,-0.15
11,CGAGTCACGTGTGTTT,0.15
12,CAGTGCACGTGGGCTT,-0.1
13,TTTTTCACGTGAGCGC,0.44
14,ATTGTCACGTGTAAAC,0.24
15,TGTGGCACGTGCACGG,-0.18
16,TAATGCACGTGATGTA,-0.05
17,TGAGACACGTGTGTCT,0.06
18,TGCATCACGTGGGTGC,0.06
19,GTGGCCACGTGGGATT,-0.04
20,AAGGCCACGTGATTTG,0.27
21,CGTGACACGTGGGCGA,-0.08
22,CTGGACACGTGTGTGT,0.09
23,TTGGGCACGTGGGACC,-0.13
